Test results from US9073885B2, “Vitamin D3 lactone derivatives” (Teijin Pharma Limited, priority 2003, dated 2015).
At least one compound was matched to its structure with a doubt left. Some results were stated once for a whole list of compounds, not compound by compound.

Tests used:
HL-60 cells = experiment: Vitamin D3 antagonist action: inhibition of HL-60 cell differentiation induced by 1α,25-dihydroxyvitamine D3 (NBT reducing activity); format: cell-based; conditions: inhibition of NBT reducing activity induced by 1×10^-8 M 1α,25-dihydroxyvitamine D3, 4 days
Source text: The Vitamin D3 Antagonist Action Determined by Using the Induction of HL-60 Cell Differentiation by 1α,25-dihydroxyvitamine D3 as an Indicator
(1) HL-60 cells that were purchased from a cell bank (Japanese Cancer Research Resources Bank, Cell No. JCRB0085) were used. The cells were maintained as a frozen preservation stock to prevent changes in cellular characteristics by subculture. The stock was thawed before starting the experiment, and the cells which subsequently initiated subculture were used. The cells with subcultivation approximately over one month to a half year were used for the experiment. The subcultivation was performed by first centrifuging and collecting cells in suspension culture, and then diluting the collected cells by approximately a factor of 100 to a concentration of 1×10^4 to 2×10^4 cells/ml in a fresh culture medium. An RPMI-1640 medium with 10% fetal bovine serum was used as the culture medium.
(2) The cells that had been subcultured in (1) were collected by centrifugation and dispersed to a concentration of […] cells/ml in the culture medium, and the dispersed cells were subsequently seeded with 1 ml/well in a 24-well culture dish. To this system was added an ethanol solution, which was prepared with 1×10^−5 M of 1α,25-dihydroxyvitamine D3 and 1×10^−8 M to 10^−4 M of the compound of the present invention, at 1 μl per well (the final concentration: 1×10^−8 M of 1α,25-dihydroxyvitamine D3 and 1×10^−11 M to 10^−7 M of the compound of the present invention). As a control, ethanol was added at 1 μl per well. The cells were incubated under 5% CO2 at 37° C. for 4 days, and the culture medium was subjected to centrifugation to collect the cells.
(3) The induction of nitroblue tetrazolium (hereinafter referred to as NBT) reducing activity was used as an indicator of the induction of HL-60 cell differentiation. The NBT reducing activity was measured according to the procedures described below. That is, after the centrifuged and collected cells were suspended in a fresh culture medium, NBT and 12-O-tetradecanoylphorbol-13-acetate were added to the medium to make their concentrations 0.1% and 100 ng/ml, respectively, and then the medium was incubated at 37° C. for 25 minutes to create a Cytospin sample. After air drying the resultant sample, Kernechtrot staining was performed to determine the ratio of NBT reducing activity-positive cells under an optical microscope. A percent ratio of the positive cell ratio obtained by the concomitant treatment with 1×10^−8 M of 1α,25-dihydroxyvitamine D3 and 1×10^−11 M to 1×10^−7 M of the compound of the present invention to the positive cell ratio obtained by the treatment of 1×10^−8 M of 1α,25-dihydroxyvitamine D3 alone was plotted as a function of the treatment concentration of the compound of the present invention. The plotted results were used to calculate the treatment concentration of the compound of the present invention corresponding to the percent ratio of 50%, which was designated as the IC50 value (nM).
The Effect on the Induction of NBT Reducing Activity in HL-60 Cells (The Inhibitory Effect of the Compound of the Present Invention on the Cell Differentiation Induction by 1α,25-dihydroxyyitamine D3)

[1] = biological target: T1, 1α,25-dihydroxyvitamine D3 receptor (VDR) (Gallus gallus, UniProt O42392); experiment: Binding affinity to the 1α,25-dihydroxyvitamine D3 receptor (VDR) in chicken small intestinal mucosal cells; conditions: relative intensity ratio of the concentration inhibiting 50% of [26,27-methyl-3H]1α,25-dihydroxyvitamine D3 binding; 1α,25-dihydroxyvitamine D3 = 1
T1 construct: 0.2 mg of the 1α,25-dihydroxyvitamine D3 receptor protein in chicken small intestinal mucosal cells; from tissue; host or cells: chicken small intestinal mucosal cells
T1 sequence (O42392 1-451): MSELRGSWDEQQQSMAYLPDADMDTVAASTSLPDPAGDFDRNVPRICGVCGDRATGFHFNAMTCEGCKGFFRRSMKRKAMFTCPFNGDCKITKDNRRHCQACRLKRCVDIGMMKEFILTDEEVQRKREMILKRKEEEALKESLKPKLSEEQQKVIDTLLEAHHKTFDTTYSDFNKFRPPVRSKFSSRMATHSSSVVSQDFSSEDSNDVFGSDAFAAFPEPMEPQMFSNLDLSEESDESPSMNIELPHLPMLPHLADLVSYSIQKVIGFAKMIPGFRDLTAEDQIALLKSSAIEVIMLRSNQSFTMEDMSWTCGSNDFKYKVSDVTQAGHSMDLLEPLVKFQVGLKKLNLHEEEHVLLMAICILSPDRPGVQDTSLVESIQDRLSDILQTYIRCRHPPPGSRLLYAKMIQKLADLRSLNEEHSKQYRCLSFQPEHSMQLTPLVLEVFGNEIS

SMILES | IC50 (HL-60 cells) [nM] | VDR Affinity [1]
C=C1C(=CC=C2CCCC3(C)C2CCC3C(C)CC2OC(=O)C(=C)C2CCCC)CC(O)C(C)C1O [Compound No. 205b, 2α-methyl-20(R)-(tetrahydro-3-methylene-2-furanone-4(S)-butyl-5(S)-yl)methyl-9,10-secopregna-5(Z),7(E),10(19)-triene-1α,3β-diol] | < 10 | 1-1/5
C=C1C(=CC=C2CCCC3(C)C2CCC3C(C)CC2OC(=O)C(=C)C2CCCC)CC(O)C(C)C1O [Compound No. 205c, 2α-methyl-20(R)-(tetrahydro-3-methylene-2-furanone-4(R)-butyl-5(S)-yl)methyl-9,10-secopregna-5(Z),7(E),10(19)-triene-1α,3β-diol] | < 10 | 1-1/5
C=C1/C(=C\C=C2/CCC[C@]3(C)[C@@H]([C@H](C)C[C@H]4OC(=O)C(=C)[C@H]4CC(C)C)CC[C@@H]23)C[C@@H](O)[C@H](C)[C@@H]1O [Compound No. 206a, 2α-methyl-20(R)-(tetrahydro-3-methylene-2-furanone-4(R)-isobutyl-5(R)-yl)methyl-9,10-secopregna-5(Z),7(E),10(19)-triene-1α,3β-diol] | 10 to 100 | 1/5-1/10
C=C1C(=CC=C2CCCC3(C)C2CCC3C(C)CC2OC(=O)C(=C)C2CC(C)C)CC(O)C(C)C1O [Compound No. 206b, 2α-methyl-20(R)-(tetrahydro-3-methylene-2-furanone-4(S)-isobutyl-5(S)-yl) methyl-9,10-secopregna-5(Z),7(E),10(19)-triene-1α,3β-diol] | < 10 | 1-1/5
C=C1C(=CC=C2CCCC3(C)C2CCC3C(C)CC2OC(=O)C(=C)C2CC(C)C)CC(O)C(C)C1O [Compound No. 206c, 2α-methyl-20(R)-(tetrahydro-3-methylene-2-furanone-4(R)-isobutyl-5(S)-yl)methyl-9,10-secopregna-5(Z),7(E),10(19)-triene-1α,3β-diol] | < 10 | 1/10-1/30
C=C1/C(=C\C=C2/CCC[C@]3(C)[C@@H]([C@H](C)C[C@@H]4OC(=O)C(=C)[C@@H]4CC(C)C)CC[C@@H]23)C[C@@H](O)[C@H](C)[C@@H]1O [Compound No. 206d, 2α-methyl-20(R)-(tetrahydro-3-methylene-2-furanone-4(S)-isobutyl-5(R)-yl)methyl-9,10-secopregna-5(Z),7(E),10(19)-triene-1α,3β-diol] | 100 to 300 | 1/10-1/30
C=C1C(=CC=C2CCCC3(C)C2CCC3C(C)CC2OC(=O)C(=C)C2c2ccccc2)CC(O)C(C)C1O [Compound No. 209a, 2α-methyl-20(R)-(tetrahydro-3-methylene-2-furanone-4(R))-phenyl-5(R)-yl)methyl-9,10-secopregna-5(Z),7(E),10(19)-triene-1α,3β-diol] | < 10 | 1/5-1/10
C=C1C(=CC=C2CCCC3(C)C2CCC3C(C)CC2OC(=O)C(=C)C2c2ccccc2)CC(O)C(C)C1O [Compound No. 209b, 2α-methyl-20(R)-(tetrahydro-3-methylene-2-furanone-4(S))-phenyl-5(S)-yl)methyl-9,10-secopregna-5(Z),7(E),10(19)-triene-1α,3β-diol] | < 10 | 1-1/5
C=C1/C(=C\C=C2/CCC[C@]3(C)[C@@H]([C@H](C)C[C@@H]4OC(=O)C(=C)[C@H]4c4ccccc4)CC[C@@H]23)C[C@@H](O)[C@H](C)[C@@H]1O [Compound No. 209c] | 10 to 100 | 1/5-1/10
C=C1C(=CC=C2CCCC3(C)C2CCC3C(C)CC2OC(=O)C(=C)C2c2ccccc2)CC(O)C(C)C1O [Compound No. 209d, 2α-methyl-20(R)-(tetrahydro-3-methylene-2-furanone-4(S)-phenyl-5(R)-yl)methyl-9,10-secopregna-5(Z),7(E),10(19)-triene-1α,3β-diol] | 100 to 300 | 1/5-1/10

Other lines, results leading:

IC50 (HL-60 cells) [nM] | VDR Affinity [1] | SMILES
< 10 | 1-1/5 | C=C1C(=CC=C2CCCC3(C)C2CCC3C(C)CC2OC(=O)C(=C)C2(C)C)CC(O)C(C)C1O [Compound No. 211a, 2α-methyl-20(R)-(tetrahydro-3-methylene-2-furanone-4,4-dimethyl-5(R)-yl)methyl-9,10-secopregna-5(Z),7(E),10(19)-triene-1α,3β-diol]
< 10 | 1-1/5 | C=C1CC(CC(C)C2CCC3C(=CC=C4CC(O)C(CCCO)C(O)C4=C)CCCC32C)OC1=O [Compound No. 801a, 2α-(3-hydroxypropyl)-20(R)-(tetrahydro-3-methylene-2-furanone-5(R)-yl)methyl-9,10-secopregna-5(Z),7(E),10(19)-triene-1α,3β-diol]
< 10 | 1/5-1/10 | C=C1CC(CC(C)C2CCC3C(=CC=C4CC(O)C(CCCO)C(O)C4=C)CCCC32C)OC1=O [Compound No. 801b, 2α-(3-hydroxypropyl)-20(R)-(tetrahydro-3-methylene-2-furanone-5(S)-yl)methyl-9,10-secopregna-5(Z),7(E),10(19)-triene-1α,3β-diol]
10 to 100 | 1-1/5 | C=C1C(=O)OC(CC(C)C2CCC3C(=CC=C4CC(O)C(CCCO)C(O)C4=C)CCCC32C)C1C [Compound No. 802a, 2α-(3-hydroxypropyl)-20(R)-(tetrahydro-3-methylene-2-furanone-4(R)-methyl-5(R)-yl)methyl-9,10-secopregna-5(Z),7(E),10(19)-triene-1α,3β-diol]
< 10 | 1-1/5 | C=C1C(=O)OC(CC(C)C2CCC3C(=CC=C4CC(O)C(CCCO)C(O)C4=C)CCCC32C)C1C [Compound No. 802b, 2α-(3-hydroxypropyl)-20(R)-(tetrahydro-3-methylene-2-furanone-4(S)-methyl-5(S)-yl)methyl-9,10-secopregna-5(Z),7(E),10(19)-triene-1α,3β-diol]
< 10 | 1-1/5 | C=C1C(=O)O[C@@H](C[C@@H](C)[C@H]2CC[C@H]3/C(=C/C=C4/C[C@@H](O)[C@H](CCCO)[C@H](O)C4=C)CCC[C@]23C)[C@@H]1C [Compound No. 802c, 2α-(3-hydroxypropyl)-20(R)-(tetrahydro-3-methylene-2-furanone-4(R)-methyl-5(S)-yl)methyl-9,10-secopregna-5(Z),7(E),10(19)-triene-1α,3β-diol]
10 to 100 | 1-1/5 | C=C1C(=O)OC(CC(C)C2CCC3C(=CC=C4CC(O)C(CCCO)C(O)C4=C)CCCC32C)C1C [Compound No. 802d, 2α-(3-hydroxypropyl)-20(R)-(tetrahydro-3-methylene-2-furanone-4(S)-methyl-5(R)-yl)methyl-9,10-secopregna-5(Z),7(E),10(19)-triene-1α,3β-diol]
< 10 | 1-1/5 | C=C1C(=CC=C2CCCC3(C)C2CCC3C(C)CC2OC(=O)C(=C)C2c2ccccc2)CC(O)C(CCCO)C1O [Compound No. 810a, 2α-(3-hydroxypropyl)-20(R)-(tetrahydro-3-methylene-2-furanone-4(R)-phenyl-5(R)-yl)methyl-9,10-secopregna-5(Z),7(E),10(19)-triene-1α,3β-diol]
